Measured values from US20230287125A1 (LEPU BIOPHARMA, published 2023).

How the values were obtained:
[1] = target: T1, human PD-L1-his tag protein (human, UniProt Q9NZQ7 fragment); assay: SPR (Biacore T200), LP008-02 captured on Protein A chip, PD-L1-his injected
T1 construct: also called human PD-L1-His protein; recombinant PD-L1 protein; not shown: his tag
Experimental: (§1) All the experiments were carried out on a Biacore T200. Data analysis was carried out using Biacore T200 evaluation software.

[2] = target: mouse TGF-β protein (mouse); assay: ELISA, coated mouse TGF-β
Excerpt: (§2) After washing, the plates were developed with TMB substrate and analyzed by spectrophotometer at OD 450 nm.

[3] = target: rat PD-L1 protein (rat, UniProt D4AE25 19-239); assay: ELISA, coated rat PD-L1
[4] = target: PD-L1 on PD-L1 target cells (Homo sapiens (Human), UniProt Q9NZQ7); assay: cell-based or functional assay
[5] = target: cynomolgus TGF-β protein (cynomolgus); assay: ELISA, coated cynomolgus TGF-β
Excerpt: as §2

[6] = target: cynomolgus PD-L1 protein (cynomolgus, UniProt G7PSE7 19-238); assay: ELISA, coated cynomolgus PD-L1
Excerpt: as §2

[7] = target: T2, human TGF-β1 protein (human, UniProt P01137 fragment); assay: SPR (Biacore T200), LP008-02 captured on Protein A chip, human TGF-β1 injected
T2 construct: also called human TGF-β1 protein (Acro, TG1-H4212); recombinant human TGF-β1
Experimental: as §1

[8] = target: T1, human PD-L1-his tag protein; assay: ELISA, coated human PD-L1-His
Excerpt: as §2

[9] = target: rat TGF-β protein (rat); assay: ELISA, coated rat TGF-β
Excerpt: as §2

[10] = target: mouse PD-L1 protein (mouse, UniProt Q9EP73 fragment); assay: ELISA, coated mouse PD-L1
[11] = target: T1, human PD-L1-his tag protein; assay: SPR (Biacore T200), molecule captured on Protein A chip, PD-L1-his injected
Experimental: A serial dilution of human PD-L1-his tag protein was injected over captured antibody for 2 mins at a flow rate of 30 μl/min. The antigen was allowed to dissociate for 1500 s. All the experiments were carried out on a Biacore T200. Data analysis was carried out using Biacore T200 evaluation software.

T2 sequence (P01137 279-390 limits assumed): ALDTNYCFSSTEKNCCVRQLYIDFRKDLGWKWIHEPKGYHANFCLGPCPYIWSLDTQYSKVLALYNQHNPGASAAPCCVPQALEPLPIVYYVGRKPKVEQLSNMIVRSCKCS
T1 sequence (Q9NZQ7 19-238 limits assumed): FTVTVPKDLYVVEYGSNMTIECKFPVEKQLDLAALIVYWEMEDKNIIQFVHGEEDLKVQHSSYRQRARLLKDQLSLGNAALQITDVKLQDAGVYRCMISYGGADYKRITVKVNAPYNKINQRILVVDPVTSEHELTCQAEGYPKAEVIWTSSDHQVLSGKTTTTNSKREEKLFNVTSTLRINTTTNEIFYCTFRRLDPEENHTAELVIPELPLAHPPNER
UniProt G7PSE7, sequence (G7PSE7 entry or part of it): as the sequence (Q9NZQ7 19-238 limits assumed) above, with A33T, A34S, S62N, R68Q, Q82R, F173L, T185A, T192I, H215L counted along it
UniProt D4AE25, sequence (D4AE25 entry or part of it limits assumed): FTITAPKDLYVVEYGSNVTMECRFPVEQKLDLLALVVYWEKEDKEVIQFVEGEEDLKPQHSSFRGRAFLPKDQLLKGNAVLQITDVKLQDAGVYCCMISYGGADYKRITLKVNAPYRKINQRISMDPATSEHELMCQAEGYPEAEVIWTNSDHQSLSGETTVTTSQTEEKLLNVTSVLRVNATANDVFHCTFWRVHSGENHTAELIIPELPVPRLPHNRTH
UniProt Q9EP73, sequence (Q9EP73 19-239 limits assumed): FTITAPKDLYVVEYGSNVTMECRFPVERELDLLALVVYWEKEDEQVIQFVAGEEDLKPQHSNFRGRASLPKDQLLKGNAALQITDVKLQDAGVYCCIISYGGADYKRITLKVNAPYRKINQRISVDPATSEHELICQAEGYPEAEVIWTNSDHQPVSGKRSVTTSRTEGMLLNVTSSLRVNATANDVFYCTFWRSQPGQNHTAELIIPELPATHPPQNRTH

| Binder | Kd [1] | koff [1] | kon [1] | EC50 [2] | binding result [3] | EC50, NFAT-RE-mediated luminescence, PD1 effector cells co-cultured with PD-L1 target cells [4] | EC50 [5] | EC50 [6] | Kd [7] | koff [7] | kon [7] | EC50 [8] | EC50 [9] | binding result [10] | Kd [11] | koff [11] | kon [11] |
| --- | --- | --- | --- | --- | --- | --- | --- | --- | --- | --- | --- | --- | --- | --- | --- | --- | --- |
| LP008-02 (other, bifunctional anti-PD-L1 antibody / TGF-β RII extracellular domain fusion protein) heavy: EVQLVQSGAEVKKPGASVKVSCKASGYTFTDFWVSWVRQAPGQGLEWMGEIYPNSGVSRYNEKFKGRVTMTVDKSISTAYMELSRLRSDDTAVYYCTKYFGYTYWFGYWGQGTLVTVSSASTKGPSVFPLAPSSKSTSGGTAALGCLVKDYFPEPVTVSWNSGALTSGVHTFPAVLQSSGLYSLSSVVTVPSSSLGTQTYICNVNHKPSNTKVDKRV[not shown - human IgG1 Fc]GGGGSGGGGSGGGGSGGGGSGIPPHVQKSVNNDMIVTDNNGAVKFPQLCKFCDVRFSTCDNQKSCMSNCSITSICEKPQEVCVAVWRKNDENITLETVCHDPKLPYHDFILEDAASPKCIMKEKKKPGETFFMCSCSSDECNDNIIFSEEYNTSNPD light: DIQMTQSPSSLSASVGDRVTITCRASKSVSTYMHWYQQKPGKQPKLLIYSASHLESGVPSRFSGSGSGTDFTLTISSLQPEDFATYYCQQSNELPVTFGGGTKVEIKRTVAAPSVFIFPPSDEQLKSGTASVVCLLNNFYPREAKVQWKVDNALQSGNSQESVTEQDSKDSTYSLSSTLTLSKADYEKHKVYACEVTHQGLSSPVTKSFNRGEC | 41.3 pM | 0.000104 s⁻¹ | 2.53e+06 M⁻¹ s⁻¹ | 0.0347 µg/mL | no binding (tested: dilutions starting from 1 µg/ml) | 363 pM | 0.0344 µg/mL | 0.00789 µg/mL | 2.1 pM | 0.000272 s⁻¹ | 1.29e+08 M⁻¹ s⁻¹ | 0.0118 µg/mL | 0.0778 µg/mL | no binding (tested: dilutions starting from 1 µg/ml) |  |  |  |
| LP008-06a-ES (other, bifunctional anti-PD-L1 antibody / TGF-β RII extracellular domain fusion protein) heavy: EVQLVESGGGLVKPGGSLRLSCAASGFTFSNYWMTWIRQAPGKGLEWVASITNTGSSTFYPESVKGRFTISRDNAKNSLYLQMNSLRAEDTAVYYCTRDTTIAPFDYWGQGTMVTVSSASTKGPSVFPLAPSSKSTSGGTAALGCLVKDYFPEPVTVSWNSGALTSGVHTFPAVLQSSGLYSLSSVVTVPSSSLGTQTYICNVNHKPSNTKVDKRV[not shown - human IgG1 Fc]GGGGSGGGGSGGGGSGGGGSGIPPHVQKSVNNDMIVTDNNGAVKFPQLCKFCDVRFSTCDNQKSCMSNCSITSICEKPQEVCVAVWRKNDENITLETVCHDPKLPYHDFILEDAASPKCIMKEKKKPGETFFMCSCSSDECNDNIIFSEEYNTSNPD light: DIQMTQSPSSLSASVGDRVTITCKASQNLNEYLNWYQQKPGKAPKRLIYKTNTLQAGIPSRFSGSGSGTDYTLTISSLQPEDFATYYCSQYQSGNTFGQGTKLEIKRTVAAPSVFIFPPSDEQLKSGTASVVCLLNNFYPREAKVQWKVDNALQSGNSQESVTEQDSKDSTYSLSSTLTLSKADYEKHKVYACEVTHQGLSSPVTKSFNRGEC |  |  |  | 0.0583 µg/mL | no binding (tested: dilutions starting from 1 µg/ml) | 455 pM | 0.0583 µg/mL | 0.0109 µg/mL |  |  |  | 0.0144 µg/mL | 0.121 µg/mL | no binding (tested: dilutions starting from 1 µg/ml) | 63.1 pM | 5.3e-05 s⁻¹ | 840000 M⁻¹ s⁻¹ |
